Experimental data published in the supplement of paper PMC3334620.
Whole data set: some 33,000 sequences, median “E-score (-0.5 to 0.5)” near -0.013, cut for the highest 2% near 0.3. The list shows a part of the results.

Target: T1, Msn1 (UniProt P22148)
T1 sequence: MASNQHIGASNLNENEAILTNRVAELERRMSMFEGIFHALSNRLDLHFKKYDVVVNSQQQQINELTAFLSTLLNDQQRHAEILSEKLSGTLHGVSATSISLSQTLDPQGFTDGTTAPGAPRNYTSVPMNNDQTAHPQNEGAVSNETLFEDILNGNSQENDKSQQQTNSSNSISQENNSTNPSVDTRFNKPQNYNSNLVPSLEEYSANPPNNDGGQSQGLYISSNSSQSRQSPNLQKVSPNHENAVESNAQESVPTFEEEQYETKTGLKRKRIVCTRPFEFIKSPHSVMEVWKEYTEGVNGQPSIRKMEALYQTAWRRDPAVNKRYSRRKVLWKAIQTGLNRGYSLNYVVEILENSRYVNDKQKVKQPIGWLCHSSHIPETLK
Assay: PBM E-score (8-mer binding enrichment) (E-score (-0.5 to 0.5)); higher = stronger / more preferred TF binding; most listed sequences are background and not binding sites
Conditions: protein concentration: 200 nM; construct: GST-full length
Summary of the method: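 Yeast transcription factors, full-length or as DNA-binding domains, were expressed with a GST tag using PURExpress in vitro transcription/translation. At about 100-200 nM they were applied to universal all-10-mer Agilent arrays, double-stranded by primer extension on fresh or once-stripped slides. Fluorescent anti-GST detected bound protein, and masliner normalised the scans. E-scores for ungapped eight-base words, pooled with reverse complements, came from the Universal PBM Analysis Suite.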

| Sequence | PBM E-score |
| --- | --- |
| AGATTGAA | 0.0836 |
| TCTCCGAA | 0.0926 |
| AACATACC | 0.107 |
| ACAGGATA | 0.054 |
| TCATACCA | 0.124 |
| GCTACAGA | 0.00547 |
| CCTGACCA | 0.101 |
| CGCGGTAG | -0.00222 |
| CAGACTTA | 0.135 |
| GCGACAAA | 0.355 |
| ACACTGAA | 0.0976 |
| ATCTCAAA | 0.131 |
| GAACTGCA | 0.0252 |
| GATATCAA | -0.0116 |
| CAAGACTA | 0.0327 |
| CATGGGAG | -0.0233 |
| TGTGGCAA | 0.0358 |
| GACTCCAA | -0.2 |
| AGGGCACA | -0.0882 |
| GATCCTCA | 0.0448 |
| ATGCCAGC | -0.298 |
| CAGTCTCA | -0.093 |
| GGGATCCC | -0.159 |
| AGCATGAT | -0.0844 |
| AGTAACAT | 0.121 |

| Sequence | PBM E-score |
| --- | --- |
| AGACGTAG | 0.0019 |
| ATGGACGC | 0.122 |
| ACCTACGC | -0.0682 |
| AAGGCCGA | 0.0764 |
| AGCTGACC | -0.131 |
| CGCGAACG | 0.0532 |
| AAACGATC | 0.0597 |
| CGGCCTCC | -0.217 |
| GAATAGGC | -0.103 |
| CATTTCAA | 0.176 |
| GAGGCATA | 0.0447 |
| GCTGGAAA | -0.0496 |
| AATCTCCG | -0.0674 |
| TGCCTGAA | -0.0759 |
| CTCGGCCC | -0.164 |
| CTCCGATC | 0.0333 |
| ACTCACAG | -0.07 |
| AGGAATAG | 0.0389 |
| ACTGCCGG | -0.0605 |
| AAAGTATC | 0.165 |
| ATAAACCA | 0.0509 |
| ATCGCCTC | -0.0571 |
| ACTACTGA | -0.063 |
| GAAGGTGA | -0.0331 |
| AAAACTTC | -0.104 |

| Sequence | PBM E-score |
| --- | --- |
| GGGATGAA | -0.202 |
| AGTGCTTC | -0.0765 |
| AGCATTAC | -0.187 |
| ACCGTTGA | -0.0115 |
| CTGACCCC | -0.119 |
| ACACTTAT | 0.0932 |
| AATCCTCT | -0.265 |
| ACCGTACT | -0.0352 |
| CACTTCAG | -0.0588 |
| GGTTGGGA | -0.0804 |
| CATATCGA | -0.0141 |
| CAGGCGGC | -0.206 |
| CTCAACAC | -0.00239 |
| CCACTCCC | -0.272 |
| ATCTATAC | 0.0829 |
| CGGCTTGC | -0.0534 |
| AACACAGC | 0.225 |
| ACCCACCC | -0.165 |
| GGTAGTAC | -0.071 |
| CTCCCGCA | -0.12 |
| GACATCAA | 0.285 |
| AACACAAG | -0.0716 |
| TGAAAACA | 0.178 |
| AGAAAGCA | 0.0764 |
| AAGGTATG | 0.0446 |

| Sequence | PBM E-score |
| --- | --- |
| ATTCGAGA | 0.0754 |
| ACTTGTGA | -0.103 |
| GGAAGGAA | -0.223 |
| AGTCCCTC | -0.0351 |
| ACTCCGTC | -0.0715 |
| GCCCGAAC | 0.0645 |
| CTCTCGGC | -0.126 |
| AAGTGGGA | 0.159 |
| CCTCAACC | -0.234 |
| AGCTAGCC | -0.155 |
| ACTTACAG | 0.09 |
| CGCGGTCA | -0.0597 |
| ACATCGGG | -0.00528 |
| GAACCTAC | -0.19 |
| ACTTAGTA | 0.0124 |
| AAGCCTGA | -0.125 |
| GTACTAGA | 0.308 |
| AAAATCCC | -0.0379 |
| GCTGACAA | 0.224 |
| CTTGCAAC | 0.0457 |
| ATACAGAG | -0.0876 |
| GCCGCAAC | -0.126 |
| ATCAACGC | -0.0121 |
| GGTGCCCA | -0.227 |
| AGTACGTG | -0.0456 |

| Sequence | PBM E-score |
| --- | --- |
| CCAGCTAG | -0.16 |
| CTCAGGCA | -0.0313 |
| AGAAGAAG | -0.0785 |
| GATAGCGA | -0.0372 |
| CCTGTGCC | -0.211 |
| CTGGTCCA | -0.0285 |
| ATACCGCA | -0.00103 |
| CCGATGCA | -0.0829 |
| AATACGAT | 0.113 |
| GTTGGCGA | -0.0279 |
| CCGGATCA | 0.0422 |
| CAGTCTCG | -0.093 |
| ATACAGGG | 0.0373 |
| CTCTACTA | -0.0557 |
| ATACGCGA | 0.0515 |
| GTAGATGA | 0.0935 |
| TGGATCCA | 0.198 |
| GGCGAAAC | -0.027 |
| AATCTTAG | 0.0592 |
| AGTGTTAT | -0.0666 |
| ATTTGCGC | 0.104 |
| GATCCCAC | 0.0423 |
| CTGCCATA | 0.0725 |
| AGCGCTAC | -0.227 |
| AAAGAGGG | -0.307 |

| Sequence | PBM E-score |
| --- | --- |
| GCGTTTGA | 0.0269 |
| AATATTGT | 0.35 |
| AGCATATC | 0.0418 |
| TAACCATA | 0.00151 |
| AATCTAAC | -0.16 |
| ATGATCCA | -0.0944 |
| ACTACGTA | 0.0555 |
| CCCATCTA | -0.192 |
| ACACCATA | 0.0891 |
| CCCAACTA | 0.0148 |
| CCCGAGAG | -0.0266 |
| CTACGTGA | -0.136 |
| AATTCGCC | 0.157 |
| GCGGGCAA | -0.0658 |
| ATAGCTGC | 0.0597 |
| CATTCGTC | 0.0978 |
| GGTTGGCA | -0.217 |
| CTAAGTCA | 0.0777 |
| GAGAAAGA | -0.0338 |
| TCTAGGAA | 0.00834 |
| CGAAAACC | 0.123 |
| CGTTAACC | -0.0501 |
| AATATTAT | 0.208 |
| GACTGAAA | 0.225 |
| AGCCATCA | 0.00249 |

| Sequence | PBM E-score |
| --- | --- |
| AGGCCCTA | -0.111 |
| AGATACTA | 0.0557 |
| ACATTCGG | 0.122 |
| GAACAGCC | -0.161 |
| CAGGTAGG | -0.174 |
| CACTTGGA | 0.121 |
| AGAGTCAC | -0.0689 |
| ACTAGTAA | 0.11 |
| CTCCCTCC | -0.203 |
| CAACTGCG | -0.0264 |
| AACCATAC | -0.0629 |
| TGACTACA | -0.0612 |
| CACTACGC | -0.14 |
| ATCCAGGA | -0.015 |
| GAGCAAAA | -0.0408 |
| CAAGTGTA | 0.0882 |
| ACAAGGAA | 0.178 |
| CTACTATA | 0.0598 |
| GCGCGCAA | 0.00272 |
| ACAATCCC | 0.0591 |
| AAGTTGGT | 0.114 |
| AGTACTCA | 0.0998 |
